Assay results reported in the supplement of paper PMC4466236.
The full ranking holds about 33,000 sequences; the median of “E-score (dimensionless, -0.5 to 0.5)” is about -0.058, and the highest 2% start at about 0.35. This is one part of the list.

tested on: MvaT; experiment: PBM 8-mer E-score (mean of HK and ME arrays) (E-score (dimensionless, -0.5 to 0.5)); higher = stronger relative binding preference; most listed sequences are background and not binding sites
Summary of the method: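 Full-length P. aeruginosa MvaT, with glutathione S-transferase fused to its N-terminus (cloned into pTH6838 by isothermal assembly), was tested by protein binding microarray using a previously described protocol. Two universal double-stranded 60-mer arrays (ME and HK) were used, each with a constant 25-mer primer region and a variable 35-mer region covering all 8-mers. The rank-based 8-mer E-score (-0.5 to 0.5) is the mean of the two arrays, parsed with a custom Python script.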

Sequence	PBM 8-mer E-score
GGATTTCA	0.0657
ATTTTAGC	0.13
AGGTCAGG	-0.135
ATCTGGAC	-0.0431
AGCGGGAG	-0.185
ATATCCCC	-0.0141
GGGTCACC	-0.173
CAGATCGC	-0.19
AGCAGCTC	-0.196
ATGGGTCC	-0.174
AGGGCTAC	-0.209
GCACGCTA	-0.097
CTTGGTCA	-0.14
CGCTCATC	-0.201
GCGGAAGA	-0.182
AAAACTGT	0.0621
AAACTTAC	0.306
AGCTAAAC	0.11
CGTCCTCC	-0.424
CGTTATGA	0.0719
ATCTAGTC	-0.0232
ATGGGATC	-0.0131
CCCCACCA	-0.257
GACGCTAA	-0.0445
GCACTGCA	-0.113

Sequence	PBM 8-mer E-score
AGAGTCGA	-0.0162
CTGACGAA	-0.0586
AGCAAACC	0.0452
ACGGTCCC	-0.249
GCCGGCTA	-0.154
CGGTCACG	-0.177
CAGATAAG	0.138
ACAGGGCA	-0.18
GTCTTATA	0.325
GGTATTCA	-0.0547
CACCTGTC	-0.218
AGCACTCC	-0.0752
CGCGCTGC	-0.294
CCCGCTGC	-0.273
CTGGAACA	0.00992
GCGCTGCA	-0.246
GTCCCGCA	-0.134
GACTCACA	-0.0935
CTGAACAG	-0.176
AGTTGATA	0.26
AGTCACTC	-0.134
ACGCGAAA	0.0806
CTCGATCA	-0.161
AGTGTAAC	0.186
CACGCACA	-0.134

Sequence	PBM 8-mer E-score
GCCACACA	-0.0199
GAAGAATA	0.27
CGGGGACG	-0.127
ACTGTGTC	-0.135
ACGAACAA	0.151
AATTAGGG	0.137
CTGGCTAA	-0.116
CAATGGTA	0.0333
AGGGAGCC	-0.292
ACAATCAC	0.00599
ATTCGAAC	0.134
GCGCACGC	-0.0974
GCAGGCGC	-0.28
AAGGCCCC	-0.374
TGGATGAA	0.0531
CGCCCCCG	-0.35
ACTTACGC	0.114
GACTCTGA	-0.157
GTCGGGGA	-0.0791
AGTTGAAC	0.0069
AGTGTTTC	0.161
TGCTCACA	-0.0823
ATACTCGG	0.0138
AAGAATAC	0.118
GACAATTA	0.319

Sequence	PBM 8-mer E-score
ACGAGGCG	-0.21
AGATAGCT	-0.189
CCGAGGAG	-0.344
CGGAGTAG	-0.106
TAAGAGCA	0.0541
ACGCGCAT	-0.121
CAATAAAG	0.252
CCCCTGGA	-0.328
GCGAATCA	-0.189
GCTTAGAC	-0.047
CCAAGGCC	-0.219
ATGAGTGG	-0.0617
ATGTTTGA	0.189
TCCTGGCA	-0.144
CGCCGGGA	-0.228
GCGCTCCC	-0.314
CATGTATA	0.264
CACGAACA	-0.0447
ATAACGTA	0.255
ATGCTGTG	0.0845
GCCGGGCC	-0.266
ACGAATAA	0.259
GGGCCTTA	-0.0543
GACCAGAA	0.0488
GCGAGGCC	-0.291

Sequence	PBM 8-mer E-score
ACCAACCG	-0.102
GTACGAAC	0.0637
GCAGAACA	-0.0745
AGGTCTCG	-0.241
GTTTCGAA	0.0411
AGCCCCCA	-0.266
TCCTTGCA	-0.0026
ATGTCAGA	-0.0205
AGATATCC	-0.0391
AAATGATT	0.165
AGGGACAA	-0.0788
GTAAAGGA	-0.0842
CACTTGAG	-0.0853
ACCCCCTA	-0.316
CTACTGGA	-0.112
TCCGTGAA	-0.0575
ACGATCGC	-0.157
AGCGAACA	-0.105
CGTGGTAC	-0.0852
AAAAATGG	0.0876
TCCATACA	0.0243
ACCGTGAC	-0.11
ACTTGACC	-0.00383
CGGAGCCC	-0.226
AGAAGACA	0.0191

Sequence	PBM 8-mer E-score
AGGAGAGC	-0.304
CTATAGCA	0.0375
AAGCGTTG	-0.0764
TATTTCCA	0.312
CCGGGCAG	-0.319
CAGCCGCG	-0.258
ATACAGTA	0.284
CCTCCTGA	-0.324
CTCCGGTC	-0.106
GAATGGCC	-0.138
CAGTCGTC	-0.153
CATCGAGC	-0.118
AGTCCTAG	-0.168
CCTCCGTA	-0.327
GAGTATGC	0.0856
CATTCAAG	0.0214
CTACTTAA	0.255
CAGCGTAG	-0.152
CATGTCGG	-0.063
AAGGACCG	-0.158
AGCGTCTC	-0.29
GGCTCACA	-0.151
GACACGTA	0.0346
GATTGGCA	-0.153
ACCAGCAA	0.0594

Sequence	PBM 8-mer E-score
CTACCCTC	-0.249
ACGAGCCT	-0.209
AGCTAGAC	-0.119
CGTAGGCC	-0.294
GCCCTCGA	-0.345
AGCGTATC	-0.151
GCGATCAA	-0.00435
GTCATGTA	-0.0366
GCACCCAA	-0.0708
ATGGGTTG	-0.032
CTAAGCAG	-0.208
TCAATCCA	-0.104
CCCGTCTC	-0.187
TCCGAGGA	-0.105
CCGGTCCG	-0.107
ATGAGATA	0.098
GGACTTAC	-0.0202
AGAGGCAT	-0.0507
AGACATAC	0.108
CCAGCAAC	-0.0157
CGGATTTA	0.0502
AATTTAGG	0.182
ACGGCGAC	-0.219
AAAGAGAC	-0.0566
ATGCATCG	0.0128

Sequence	PBM 8-mer E-score
AGTGTGAA	0.204
AGCGTCCG	-0.21
GAATGTTA	0.275
GACAACTA	0.219
ATCGTAGC	-0.068
ACTCCGGC	-0.254
GATGCTAA	0.0177
AAGCATAA	0.0984
AGATAAAG	0.0927
ACAATCCA	0.0225
AACTTAGC	0.247
ATTTAAAT	0.474
GGATTGCC	-0.0996
ATGACTCG	-0.0983
ACACGAGC	-0.154
CAATTCAA	0.19
ACCTTAAT	0.262
AATCGGGC	0.00445
CAAGCATG	-0.192
CATTCGCG	-0.0993
CGACGGGC	-0.139
CTAACGGC	-0.153
ACATATAT	0.47
ACGACGGC	-0.188
CACTACGG	-0.0812

Sequence	PBM 8-mer E-score
GTCAGTGA	-0.0379
TCCGATCA	-0.265
AGAGAAAA	0.0443
ATTGGACG	-0.0897
GTATATAA	0.401
AGTGACGG	-0.166
ACTTTGCC	0.134
CCCTTTGC	-0.196
ATTTCGGC	0.139
AGCCAAGA	-0.0913
AGTGTTTA	0.22
CAGCTGCC	-0.182
TAACACGA	0.0945
AGTCCTAA	-0.032
GGATGACA	-0.0203
ATCCAAGG	-0.209
CTTAGTTA	0.273
ACAGTCGG	-0.075
ACACACGT	-0.119
AGCAAAAA	0.0929
TGGACTAA	0.0684
TCACGGCA	-0.00811
CCGAGGCG	-0.245
ACTATCGG	0.111
CAATGTCA	0.137

Sequence	PBM 8-mer E-score
CTTCCGTA	-0.0849
ACGTAATC	-0.0211
AAGGTCAT	-0.0555
CGGTGCCC	-0.305
AATTGAGT	0.191
CTGTAACA	0.19
AAAAAAGT	0.25
ACTCTGTG	-0.0869
CCACATCA	0.0469
AACCCCGG	-0.199
ATGGATTC	-0.07
ACCCCTGA	-0.27
GCAATGAA	0.0865
GTGATAGA	-0.0425
AGTTGGCA	-0.0412
ACTTCACT	0.0283
ATTTAAAG	0.354
AATAAGGA	0.19
GCGGAAGC	-0.179
CCGCGATC	-0.215
CTGGGACC	-0.183
GGCTTAGA	-0.0925
AACTCCAG	-0.14
CATTCCAC	-0.0747
CTGCTCAA	-0.117

Sequence	PBM 8-mer E-score
AACCATAG	0.0919
ACTGTGAC	0.0208
GGCAAGCA	-0.272
CGTACGGA	-0.148
ACTATACC	0.179
CCTAGAGG	-0.191
GTTGACCA	-0.00885
AAGTTACT	0.339
ATAAGCAG	0.136
ACCCGGGC	-0.294
GCACGTCC	-0.168
ATCCTCGC	-0.157
CGCGCGCA	0.0198
CACCCCGA	-0.172
TGTTCTAA	0.202
AACGGGAC	-0.0138
ATTAACTC	0.249
GCCGTGAA	-0.104
TGGCGCAA	0.0575
AGAGCACC	-0.221
AGTCGACG	-0.209
AGGGTAGC	-0.296
GGGTGAAA	0.0705
AGATTAAG	0.175
GGTGTCTA	-0.123

Sequence	PBM 8-mer E-score
GAGCGAAC	-0.195
CGGTATGA	-0.228
GAGCGTCA	-0.289
CATGCGTC	-0.0715
ATATCTCG	0.229
AGCCGAGC	-0.341
AATGAAAG	0.238
AAGAGTCA	-0.028
AGCGAGTG	-0.0174
GTGTGCTA	-0.0217
ATAACACC	0.176
TCAATACA	0.259
AAGTGTTA	0.243
TACTACAA	0.266
AGACAGCA	-0.0818
CATACTCG	0.00716
ACCGAAAG	-0.133
AATAAACC	0.289
ATTAACGC	0.0937
TCGCCAGA	-0.0571
AGCGGACA	-0.107
ACATAAAC	0.283
TCACCGAA	-0.14
AATTAGCA	0.192
CTACTCGA	-0.0662

Sequence	PBM 8-mer E-score
AAAAAAGA	0.159
ACGTGATA	0.132
AATCCACG	-0.0564
ATGAAGTC	0.0081
TAAGCATA	0.161
CTAGTACC	-0.108
GTAGGATA	0.0849
ACGAGAAG	-0.0709
CGCCCGAC	-0.326
AATATAAC	0.42
AAATGGTT	0.139
CAGTCCAA	-0.129
ACACGAGA	-0.0311
ATGGGCCA	0.0484
AGACTAGA	0.16
TGTTGTAA	0.254
TCACAGGA	-0.0498
CCATCTTC	-0.0489
TACATATA	0.402
GCGGAACC	-0.335
ACGCTACA	-0.0882
GGTCCGAA	-0.0643
ACACCAAC	-0.0282
CACACCAC	-0.0201
AATCCTTC	-0.0742

Sequence	PBM 8-mer E-score
TACGTTCA	0.013
ATGATGCG	-0.0483
CCCGAGTC	-0.173
CCGCGCCG	-0.108
CAACGTGA	-0.113
ATTGATCG	0.046
ATGGCAGA	-0.0673
GTTTGTTA	0.25
AAACTGCG	0.0339
ATGCGCGG	-0.207
CAGGAACA	-0.14
CTAGACAA	0.0305
CTAGTCGC	-0.235
AGGGGGGC	-0.356
AACTAGCC	0.0638
GAAGCGGC	-0.223
GACGTGAA	0.0482
ACAGCAAG	-0.0242
ACGGCCCC	-0.246
